According to the supplement of paper PMC8728848:
The list shows a part of the results.

Legend:
Assay in all cases: glycan array binding signal (z-score within array); higher = stronger binding
Conditions in all cases: glycan notation: IUPAC condensed, linker removed
[1] = target: Fuc(a1-2)[Gal(a1-3)]Gal(b1-4)GlcNAc(b1-2)Man(a1-3)[Fuc(a1-2)[Gal(a1-3)]Gal(b1-4)GlcNAc(b1-2)Man(a1-6)]Man(b1-4)GlcNAc(b1-4)[Fuc(a1-6)]GlcNAc
Outline: (§1)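 Arrays were curated from the Consortium for Functional Glycomics database, 3228 in total, and kept only where the protein sequence was available. Binding is expressed as a within-array Z-score. This score was averaged across arrays of the same protein sequence at different concentrations or buffers and across linkers, and negative values can be read as non-binding.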

[2] = target: Fuc(a1-2)[Gal(a1-3)]Gal(b1-4)GlcNAc(b1-3)GalNAc
Outline: as §1

[3] = target: Fuc(a1-2)[Gal(a1-3)]Gal(b1-4)GlcNAc(b1-3)[Fuc(a1-2)[Gal(a1-3)]Gal(b1-4)GlcNAc(b1-6)]GalNAc
Outline: as §1

[4] = target: Fuc(a1-2)[Gal(a1-3)]Gal(b1-4)GlcNAc(b1-6)GalNAc
Outline: as §1

[5] = target: Fuc(a1-2)[Gal(a1-3)]Gal(b1-4)[Fuc(a1-3)]Glc
Outline: as §1

[6] = target: Fuc(a1-2)[Gal(a1-3)]Gal(b1-4)[Fuc(a1-3)]GlcNAc
Outline: as §1

[7] = target: Fuc(a1-2)[Gal(a1-3)]Gal(b1-4)[Fuc(a1-3)]GlcNAc(b1-3)GalNAc
Outline: as §1

[8] = target: Fuc(a1-2)[Gal(a1-4)]Gal(b1-4)GlcNAc
Outline: as §1

[9] = target: Fuc(a1-2)[GalNAc(a1-3)]Gal
Outline: as §1

[10] = target: Fuc(a1-2)[GalNAc(a1-3)]Gal(b1-3)GalNAc(a1-3)[Fuc(a1-2)]Gal(b1-4)GlcNAc
Outline: as §1

[11] = target: Fuc(a1-2)[GalNAc(a1-3)]Gal(b1-3)GalNAc(b1-3)Gal(a1-4)Gal(b1-4)Glc
Outline: as §1

[12] = target: Fuc(a1-2)[GalNAc(a1-3)]Gal(b1-3)GlcNAc
Outline: as §1

[13] = target: Fuc(a1-2)[GalNAc(a1-3)]Gal(b1-3)GlcNAc(b1-2)Man(a1-3)[Fuc(a1-2)[GalNAc(a1-3)]Gal(b1-3)GlcNAc(b1-2)Man(a1-6)]Man(b1-4)GlcNAc(b1-4)GlcNAc
Outline: as §1

[14] = target: Fuc(a1-2)[GalNAc(a1-3)]Gal(b1-3)GlcNAc(b1-2)Man(a1-3)[Fuc(a1-2)[GalNAc(a1-3)]Gal(b1-3)GlcNAc(b1-2)Man(a1-6)]Man(b1-4)GlcNAc(b1-4)[Fuc(a1-6)]GlcNAc
Outline: as §1

[15] = target: Fuc(a1-2)[GalNAc(a1-3)]Gal(b1-3)GlcNAc(b1-3)GalNAc
Outline: as §1

[16] = target: Fuc(a1-2)[GalNAc(a1-3)]Gal(b1-3)GlcNAc(b1-6)GalNAc
Outline: as §1

[17] = target: Fuc(a1-2)[GalNAc(a1-3)]Gal(b1-4)Glc
Outline: as §1

[18] = target: Fuc(a1-2)[GalNAc(a1-3)]Gal(b1-4)GlcNAc
Outline: as §1

[19] = target: Fuc(a1-2)[GalNAc(a1-3)]Gal(b1-4)GlcNAc(b1-2)Man
Outline: as §1

[20] = target: Fuc(a1-2)[GalNAc(a1-3)]Gal(b1-4)GlcNAc(b1-2)Man(a1-3)[Fuc(a1-2)[GalNAc(a1-3)]Gal(b1-4)GlcNAc(b1-2)Man(a1-6)]Man(b1-4)GlcNAc(b1-4)GlcNAc
Outline: as §1

[21] = target: Fuc(a1-2)[GalNAc(a1-3)]Gal(b1-4)GlcNAc(b1-2)Man(a1-3)[Fuc(a1-2)[GalNAc(a1-3)]Gal(b1-4)GlcNAc(b1-2)Man(a1-6)]Man(b1-4)GlcNAc(b1-4)[Fuc(a1-6)]GlcNAc
Outline: as §1

[22] = target: Fuc(a1-2)[GalNAc(a1-3)]Gal(b1-4)GlcNAc(b1-3)Gal(b1-4)GlcNAc
Outline: as §1

[23] = target: Fuc(a1-2)[GalNAc(a1-3)]Gal(b1-4)GlcNAc(b1-3)Gal(b1-4)GlcNAc(b1-3)Gal(b1-4)GlcNAc
Outline: as §1

[24] = target: Fuc(a1-2)[GalNAc(a1-3)]Gal(b1-4)GlcNAc(b1-3)GalNAc
Outline: as §1

[25] = target: Fuc(a1-2)[GalNAc(a1-3)]Gal(b1-4)GlcNAc(b1-3)[Fuc(a1-2)[GalNAc(a1-3)]Gal(b1-4)GlcNAc(b1-6)]GalNAc
Outline: as §1

[26] = target: Fuc(a1-2)[GalNAc(a1-3)]Gal(b1-4)GlcNAc(b1-6)GalNAc
Outline: as §1

[27] = target: Fuc(a1-2)[GalNAc(a1-3)]Gal(b1-4)[Fuc(a1-3)]GlcNAc
Outline: as §1

[28] = target: Fuc(a1-2)[GalNAc(a1-3)]Gal(b1-4)[Fuc(a1-3)]GlcNAc(b1-3)GalNAc
Outline: as §1

[29] = target: Fuc(a1-2)[GalNAc(a1-4)]Gal(b1-4)GlcNAc
Outline: as §1

[30] = target: Fuc(a1-2)[GalNAc(b1-3)]Gal
Outline: as §1

Fuc(a1-3)GlcNAc = target: Fuc(a1-3)GlcNAc
Outline: as §1

[31] = target: Fuc(a1-3)[Gal(b1-4)]Glc6S
Outline: as §1

[32] = target: Fuc(a1-3)[Gal(b1-4)]GlcNAc
Outline: as §1

[33] = target: Fuc(a1-3)[Gal(b1-4)]GlcNAc(b1-2)Man
Outline: as §1

[34] = target: Fuc(a1-3)[Gal(b1-4)]GlcNAc(b1-2)Man(a1-3)[Fuc(a1-3)[Gal(b1-4)]GlcNAc(b1-2)Man(a1-6)]Man(b1-4)GlcNAc(b1-4)GlcNAc
Outline: as §1

[35] = target: Fuc(a1-3)[Gal(b1-4)]GlcNAc(b1-2)Man(a1-3)[Fuc(a1-3)[Gal(b1-4)]GlcNAc(b1-2)Man(a1-6)]Man(b1-4)GlcNAc(b1-4)[Fuc(a1-6)]GlcNAc
Outline: as §1

[36] = target: Fuc(a1-3)[Gal(b1-4)]GlcNAc(b1-3)Gal(b1-3)[Fuc(a1-4)]GlcNAc
Outline: as §1

[37] = target: Fuc(a1-3)[Gal(b1-4)]GlcNAc(b1-3)Gal(b1-4)[Fuc(a1-3)]GlcNAc
Outline: as §1

[38] = target: Fuc(a1-3)[Gal(b1-4)]GlcNAc(b1-3)Gal(b1-4)[Fuc(a1-3)]GlcNAc(b1-3)Gal(b1-4)[Fuc(a1-3)]GlcNAc
Outline: as §1

[39] = target: Fuc(a1-3)[Gal(b1-4)]GlcNAc(b1-3)GalNAc
Outline: as §1

[40] = target: Fuc(a1-3)[Gal(b1-4)]GlcNAc(b1-6)GalNAc
Outline: as §1

[41] = target: Fuc(a1-3)[Gal(b1-4)]GlcNAc(b1-6)[Gal(b1-3)GlcNAc(b1-3)]Gal(b1-4)Glc
Outline: as §1

[42] = target: Fuc(a1-3)[Gal(b1-4)]GlcNAc6S
Outline: as §1

[43] = target: Fuc(a1-3)[Gal3S(b1-4)]Glc
Outline: as §1

[44] = target: Fuc(a1-3)[Gal3S(b1-4)]GlcNAc
Outline: as §1

[45] = target: Fuc(a1-3)[Gal3S(b1-4)]GlcNAc6S
Outline: as §1

[46] = target: Fuc(a1-3)[GalNAc(b1-4)]GlcNAc
Outline: as §1

[47] = target: Fuc(a1-3)[GalNAc(b1-4)]GlcNAc6S
Outline: as §1

Fuc(a1-4)GlcNAc = target: Fuc(a1-4)GlcNAc
Outline: as §1

Fuc(b1-3)GlcNAc = target: Fuc(b1-3)GlcNAc
Outline: as §1

Gal(a1-2)Gal = target: Gal(a1-2)Gal
Outline: as §1

Gal(a1-3)Gal = target: Gal(a1-3)Gal
Outline: as §1

Gal(a1-3)Gal(b1-3)GlcNAc = target: Gal(a1-3)Gal(b1-3)GlcNAc
Outline: as §1

[48] = target: Gal(a1-3)Gal(b1-3)GlcNAc(b1-2)Man
Outline: as §1

[49] = target: Gal(a1-3)Gal(b1-3)GlcNAc(b1-2)Man(a1-3)[Gal(a1-3)Gal(b1-3)GlcNAc(b1-2)Man(a1-6)]Man(b1-4)GlcNAc(b1-4)GlcNAc
Outline: as §1

[50] = target: Gal(a1-3)Gal(b1-3)GlcNAc(b1-3)GalNAc
Outline: as §1

[51] = target: Gal(a1-3)Gal(b1-3)GlcNAc(b1-6)GalNAc
Outline: as §1

[52] = target: Gal(a1-3)Gal(b1-3)[Fuc(a1-4)]GlcNAc(b1-2)Man(a1-3)[Gal(a1-3)Gal(b1-3)[Fuc(a1-4)]GlcNAc(b1-2)Man(a1-6)]Man(b1-4)GlcNAc(b1-4)GlcNAc
Outline: as §1

Gal(a1-3)Gal(b1-4)Glc = target: Gal(a1-3)Gal(b1-4)Glc
Outline: as §1

Gal(a1-3)Gal(b1-4)GlcNAc = target: Gal(a1-3)Gal(b1-4)GlcNAc
Outline: as §1

B1: B1567 (Bifidobacterium sp) (protein)
chain: MKFTTAKKAVALTGAVAMLVSVAACGSDSGKSSQPAQDSDVKEITVWAWEPSLTQVAKDFEKETGIKVDLKNVGTNTKEYTQLDNAIEAGSGAPDVAQVEYYAVPQYAIKGNLLDITDKTSGYKDFYTPGPWASVQFAGKVYGLPMDSGPMAFFYNKEVFDKAGVDAEQIKTWDQYYDAAKKIHALGDNYYITSDTGDAGFFDSMTWLAGAKPFQTSSDGSEVTVNLTEDKGVKTFTDFWQKLLDEGLLDTKTAGWSEDWFKGMVDGTIASLFTGAWMPANLANSAADGAGKWRVTQMPTADGSTTNSENGGSSLAVLASTKKADAAYQFIEYANHGAGVATRVAGGAFPADKASLEKDSFKNATTVKNADGQDVDYFGGQKYNEVLAQAAENVSSGYQFLPFEVKARTIFGDYFGKSYTGDQKLSDGVAAWQKALQDYGKDQGFTVK
- glycan array binding signal (z-score) [1]: -0.082
- glycan array binding signal (z-score) [2]: -0.135
- glycan array binding signal (z-score) [3]: -0.001
- glycan array binding signal (z-score) [4]: -0.106
- glycan array binding signal (z-score) [5]: -0.113
- glycan array binding signal (z-score) [6]: -0.085
- glycan array binding signal (z-score) [7]: -0.041
- glycan array binding signal (z-score) [8]: -0.14
- glycan array binding signal (z-score) [9]: -0.083
- glycan array binding signal (z-score) [10]: -0.138
- glycan array binding signal (z-score) [11]: -0.103
- glycan array binding signal (z-score) [12]: -0.117
- glycan array binding signal (z-score) [13]: -0.111
- glycan array binding signal (z-score) [14]: 0.076
- glycan array binding signal (z-score) [15]: -0.074
- glycan array binding signal (z-score) [16]: -0.123
- glycan array binding signal (z-score) [17]: -0.063
- glycan array binding signal (z-score) [18]: -0.106
- glycan array binding signal (z-score) [19]: -0.162
- glycan array binding signal (z-score) [20]: 0.019
- glycan array binding signal (z-score) [21]: -0.047
- glycan array binding signal (z-score) [22]: -0.108
- glycan array binding signal (z-score) [23]: -0.087
- glycan array binding signal (z-score) [24]: -0.121
- glycan array binding signal (z-score) [25]: -0.098
- glycan array binding signal (z-score) [26]: -0.107
- glycan array binding signal (z-score) [27]: -0.05
- glycan array binding signal (z-score) [28]: -0.097
- glycan array binding signal (z-score) [29]: -0.054
- glycan array binding signal (z-score) [30]: -0.1
- glycan array binding signal (z-score) (Fuc(a1-3)GlcNAc): -0.157
- glycan array binding signal (z-score) [31]: -0.066
- glycan array binding signal (z-score) [32]: -0.101
- glycan array binding signal (z-score) [33]: -0.045
- glycan array binding signal (z-score) [34]: -0.097
- glycan array binding signal (z-score) [35]: -0.083
- glycan array binding signal (z-score) [36]: -0.052
- glycan array binding signal (z-score) [37]: 0.063
- glycan array binding signal (z-score) [38]: -0.079
- glycan array binding signal (z-score) [39]: -0.093
- glycan array binding signal (z-score) [40]: -0.096
- glycan array binding signal (z-score) [41]: -0.15
- glycan array binding signal (z-score) [42]: -0.097
- glycan array binding signal (z-score) [43]: -0.037
- glycan array binding signal (z-score) [44]: -0.065
- glycan array binding signal (z-score) [45]: -0.033
- glycan array binding signal (z-score) [46]: -0.056
- glycan array binding signal (z-score) [47]: -0.043
- glycan array binding signal (z-score) (Fuc(a1-4)GlcNAc): -0.077
- glycan array binding signal (z-score) (Fuc(b1-3)GlcNAc): -0.089
- glycan array binding signal (z-score) (Gal(a1-2)Gal): -0.081
- glycan array binding signal (z-score) (Gal(a1-3)Gal): -0.104
- glycan array binding signal (z-score) (Gal(a1-3)Gal(b1-3)GlcNAc): -0.129
- glycan array binding signal (z-score) [48]: -0.077
- glycan array binding signal (z-score) [49]: 0.046
- glycan array binding signal (z-score) [50]: -0.018
- glycan array binding signal (z-score) [51]: -0.124
- glycan array binding signal (z-score) [52]: 0.007
- glycan array binding signal (z-score) (Gal(a1-3)Gal(b1-4)Glc): 0.005
- glycan array binding signal (z-score) (Gal(a1-3)Gal(b1-4)GlcNAc): -0.086
